Where a name gives a salt, the structure may show the parent alone. Some of the results follow. Most values come without repeats; read them as rough.

In the assay the test system is OVCAR4. Briefly: log2 surviving fraction (library drug vs vehicle, or drug + carboplatin vs carboplatin alone; relative to plate median); ovarian cancer lines: OVCAR4 is platinum-sensitive and Ov4Carbo platinum-resistant; higher = more cell survival. The conditions noted are these: library drug concentration 10 µM; 7 days; carboplatin co-treatment 0 µM.
For the molecule `N=C(N)NC(=O)c1nc(Cl)c(N)nc1N` [Amiloride hydrochloride dihydrate], the log2 surviving fraction is -0.106.
In the case of `CC(=O)O[C@H]1C[C@@H]2CC[C@@H]3[C@H](CC[C@@]4(C)[C@H]3C[C@H]([N+]3(C)CCCCC3)[C@@H]4OC(C)=O)[C@@]2(C)C[C@@H]1[N+]1(C)CCCCC1` [Pancuronium (Pavulon)], the log2 surviving fraction is -0.25.
On to `COC(=O)CCc1ccc(OCC(O)CNC(C)C)cc1` (centres undefined) [Esmolol HCl], for which the log2 surviving fraction is -0.137.
For the molecule `CN1[C@@H]2CC[C@H]1C[C@@H](OC(c1ccccc1)c1ccccc1)C2` [Benztropine mesylate], the log2 surviving fraction was -1.65.
For the molecule `CCN1CCN(C(=O)N[C@@H](C(=O)N[C@@H]2C(=O)N3C(C(=O)O)=C(CSc4nnnn4C)CS[C@H]23)c2ccc(O)cc2)C(=O)C1=O` [Cefoperazone (Cefobid)], the log2 surviving fraction is 0.35.
For `CN1CCC(=C2c3ccccc3CCc3cccnc32)CC1` [Azatadine dimaleate], the log2 surviving fraction stood at 0.137.
On to `CCc1c2c(nc3ccc(OC(=O)N4CCC(N5CCCCC5)CC4)cc13)-c1cc3c(c(=O)n1C2)COC(=O)[C@]3(O)CC` [Irinotecan HCl Trihydrate (Campto)], for which the log2 surviving fraction is -8.27.
Next, `CCCCc1oc2ccccc2c1C(=O)c1cc(I)c(OCCN(CC)CC)c(I)c1` [Amiodarone HCl]: -1.21.
Consider `NNC(=O)c1ccncc1` [Isoniazid (Tubizid)], for which the log2 surviving fraction was determined as 1.35.
Next, `CCCCN1CCCCC1C(=O)Nc1c(C)cccc1C` (centres undefined) [Bupivacaine hydrochloride (Marcain)]: -0.321; `CN(C)CCCOc1nn(Cc2ccccc2)c2ccccc12` [Benzydamine Hydrochloride]: -0.866; `Nc1ccn([C@H]2CC[C@@H](CO)O2)c(=O)n1` [Zalcitabine]: 0.122.
Next, `CCCCCN(C)CCC(O)(P(=O)(O)O)P(=O)(O)O` [Ibandronate sodium]: -4.78; `C[C@]12CCC(=O)C=C1[C@@H]1C[C@@H]1[C@H]1[C@@H]3[C@@H]4C[C@@H]4[C@@]4(CCC(=O)O4)[C@@]3(C)CC[C@@H]12` [Drospirenone]: 1.08.
Next, `CC(C)(O/N=C(\C(=O)N[C@@H]1C(=O)N2C(C(=O)[O-])=C(C[n+]3ccccc3)CS[C@H]12)c1csc(N)n1)C(=O)O` [Ceftazidime Pentahydrate]: -0.284.
`C=C(NC(=O)C(=C)NC(=O)c1csc(C2=N[C@@H]3c4csc(n4)[C@H]4NC(=O)c5csc(n5)[C@H]([C@](C)(O)[C@@H](C)O)NC(=O)[C@H]5CSC(=N5)/C(=C/C)NC(=O)[C@H]([C@@H](C)O)NC(=O)c5csc(n5)[C@]3(CC2)NC(=O)[C@H](C)NC(=O)C(=C)NC(=O)[C@H](C)NC(=O)[C@H]([C@@H](C)CC)N[C@@H]2C=Cc3c([C@H](C)O)cc(nc3[C@H]2O)C(=O)O[C@@H]4C)n1)C(N)=O` [Thiostrepton]: the log2 surviving fraction is -9.68.
Turning to `NCC[C@H](O)C(=O)N[C@@H]1C[C@H](N)[C@@H](O[C@H]2O[C@H](CN)[C@@H](O)[C@H](O)[C@H]2O)[C@H](O)[C@H]1O[C@H]1O[C@H](CO)[C@@H](O)[C@H](N)[C@H]1O` [Amikacin hydrate], the log2 surviving fraction was 0.405.
Next, `O=C1CCc2ccc(OCCCCN3CCN(c4cccc(Cl)c4Cl)CC3)cc2N1` [Aripiprazole (Abilify)]: -8.29; `CCCc1nc(C(C)(C)O)c(C(=O)OCc2oc(=O)oc2C)n1Cc1ccc(-c2ccccc2-c2nnn[nH]2)cc1` [Olmesartan medoxomil (Benicar)]: 1.19.
With `CNCCc1ccccn1` [Betahistine 2HCl], the log2 surviving fraction turned out to be 0.243.
Next, `CC(C(=O)O)c1ccc(-c2ccccc2)c(F)c1` (centres undefined) [Flurbiprofen (Ansaid)]: 0.571.
Turning to `CCCCCCCCCCCCCCCCCCCCCCO` [Docosanol (Abreva)], the log2 surviving fraction is -0.0645.
Next, `CC=CC1=C(C(=O)O)N2C(=O)[C@@H](NC(=O)[C@H](N)c3ccc(O)cc3)[C@H]2SC1` [Cefprozil hydrate (Cefzil)]: 0.0627; `CN1C(C(=O)Nc2ccccn2)=C(O)c2sccc2S1(=O)=O` [Tenoxicam (Mobiflex)]: -0.187.
In the case of `COc1cc(C(=O)NS(=O)(=O)c2ccccc2C)ccc1Cc1cn(C)c2ccc(NC(=O)OC3CCCC3)cc12` [Zafirlukast (Accolate)], the log2 surviving fraction turned out to be 0.875.
Next, `Fc1ccc([C@@H]2CCNC[C@H]2COc2ccc3c(c2)OCO3)cc1` [Paroxetine HCl]: -6.22; `CCCCCCCCCCCCCCCC[N+](C)(C)C` [Cetrimonium Bromide]: -7.08; `COc1c2occc2cc2ccc(=O)oc12` [Methoxsalen (Oxsoralen)]: -0.37.
Consider `O=C1OC(CN2CCOCC2)CN1/N=C/c1ccc([N+](=O)[O-])o1` (centres undefined) [Furaltadone HCl], for which the log2 surviving fraction is -1.

(Values after the supplement of paper PMC8047034.)
